In the supplement of paper PMC6135742:
Counter-ions that a name gives are not always drawn. ± gives the standard deviation of the averaged measurements. Whole data set: some 2,600 compounds, median “MBP+ mature oligodendrocyte number relative to DMSO vehicle control” near -0.34, cut for the highest 2% near 13. This is one part of the list.

System: jimpy (Plp1 jimpy) mouse iPSC-derived oligodendrocyte progenitor cells
Assay: MBP+ mature oligodendrocyte number relative to DMSO vehicle control (SDs above negative control mean); higher = more surviving jimpy oligodendrocytes (rescue)
Conditions: 10 µM; 3 days
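Further: 10 µM single dose with 3-day oligodendrocyte differentiation.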

| SMILES | MBP+ mature oligodendrocyte number |
| --- | --- |
| CN=c1nc(-c2ccccc2)n(-c2ccccc2)s1 | 1.93 |
| O=C(O)C1=C[C@@H](O)[C@@H](O)[C@H](O)C1 [Shikimic Acid] | -1 |
| C1N2CN3CN1CN(C2)C3 [Methenamine] | 4.79 |
| CCCCCN(C)CCC(O)(P(=O)(O)O)P(=O)(O)O [Ibandronate sodium] | -0.675 |
| CNc1ncnc2c1ncn2[C@@H]1O[C@H](CO)[C@@H](O)[C@H]1O [N6-methyladenosine (m6A)] | 0.501 |
| CC(C)OC(=O)C(C(=O)OC(C)C)=C1SC=CS1 [Malotilate] | 19 |
| CC(C)(C)C(=O)OCOC(=O)[C@@H]1N2C(=O)[C@@H](/N=C/N3CCCCCC3)[C@H]2SC1(C)C [Pivmecillinam] | -0.997 |
| N[C@@H](CC(=O)O)C(=O)O [L-Aspartic acid] | -0.394 |
| C[C@@H](O)[C@H]1C(=O)N2C(C(=O)O)=C(SCCNC=N)C[C@H]12 [Imipenem monohydrate] | -0.236 |
| c1ccc2c(c1)CCCC2C1=NCCN1 (stereo not drawn) [Tetrahydrozoline hydrochloride] | 0.503 |
| c1ccc2c(c1)CCCC2C1=NCCN1 (stereo not drawn) [Tetrahydrozoline HCl] | 0.744 |
| CN(C)C[C@H](O)Cn1c2ccc(Br)cc2c2cc(Br)ccc21 (racemic) [Wiskostatin] | -2.75 |
| C#Cc1cccc(Nc2ncnc3cc(OC)c(OCCCCCCC(=O)NO)cc23)c1 | < -6.7 |
| CC(=O)S[C@@H]1CC2=CC(=O)CC[C@]2(C)[C@H]2CC[C@@]3(C)[C@@H](CC[C@@]34CCC(=O)O4)[C@H]12 [Spironolactone] | 1.84 ± 1.7 |
| CC(C)(C)NCC(O)COc1cccc2[nH]c(=O)[nH]c12 (racemic) | 0.869 |
| CCCc1cc(C(N)=S)ccn1 [Protionamide] | 1.33 |
| COc1cc2c(Nc3ccc(NC(=O)c4ccccc4)cc3)ncnc2cc1OCCCN1CCOCC1 | < -6.7 |
| CC(=O)Nc1ccc(C(=O)Nc2ccccc2N)cc1 [CI994 (Tacedinaline)] | -5.53 |
| O=C(O)[C@]1(Cc2cccc(Nc3nccs3)n2)CC[C@@H](Oc2cccc(Cl)c2F)CC1 | -3.79 |
| C=C1CC[C@H](O)C/C1=C/C=C1\CCC[C@]2(C)[C@@H]([C@H](C)CCCC(C)C)CC[C@@H]12 [Vitamin D3] | 5.56 |
| NC1(C(=O)O)CCCCC1 [1-Amino-1-cyclohexanecarboxylic acid hydrochloride] | -0.629 |
| CC(C)(O)[C@H]1CC[C@@](C)([C@H]2[C@@H](O)C[C@@]3(C)[C@@H]4C[C@H](O[C@@H]5O[C@H](CO)[C@@H](O)[C@H](O)[C@H]5O)[C@H]5C(C)(C)[C@@H](O[C@@H]6OC[C@@H](O)[C@H](O)[C@H]6O)CC[C@@]56C[C@@]46CC[C@]23C)O1 [Astragaloside A] | 0.955 |
| NNCCc1ccccc1 [Phenelzine sulfate] | 1.29 |
| C[C@H]1O[C@H](O[C@H]2[C@H](O)[C@@H](O)[C@@H](O[C@H]3[C@H](O)[C@@H](O)C(O)O[C@@H]3CO)O[C@@H]2CO)[C@H](O)[C@@H](O)[C@@H]1N[C@H]1C=C(CO)[C@@H](O)[C@H](O)[C@H]1O (stereo partly drawn) [Acarbose] | -0.502 |
| CC(C)(C=O)Cc1cc(C(C)(C)C)c(O)c(C(C)(C)C)c1 | -0.119 |
| CNC1CCCN(c2c(F)cc3c(=O)c(C(=O)O)cn(C4CC4)c3c2OC)C1 (stereo not drawn) [Balofloxacin] | -0.107 |

| SMILES | MBP+ mature oligodendrocyte number |
| --- | --- |
| CN1CCC(=C2c3ccccc3C=Cc3ccccc32)CC1 [Cyproheptadine HCl] | < -5.15 |
| CN1CCC(=C2c3ccccc3C=Cc3ccccc32)CC1 [Cyproheptadine hydrochloride] | -2.79 |
| NCC(O)C1CCCCCCC1 (stereo not drawn) [2-Cyclooctyl-2-hydroxyethylamine hydrochloride] | -0.544 |
| CO[C@H]1/C=C/O[C@@]2(C)Oc3c(C)c(O)c4c(O)c(c(/C=N/N5CCN(C6CCCC6)CC5)c(O)c4c3C2=O)NC(=O)/C(C)=C\C=C\[C@H](C)[C@H](O)[C@@H](C)[C@@H](O)[C@@H](C)[C@H](OC(C)=O)[C@@H]1C [Rifapentine] | -1.28 |
| N=C(N)NC(=N)NCCc1ccccc1 [Phenformin HCl] | 8.34 |
| NCCc1c[nH]cn1 [Histamine 2HCl] | -0.945 |
| NCCc1c[nH]cn1 [Histamine dihydrochloride] | -0.439 |
| OC(Cn1cncn1)(Cn1cncn1)c1ccc(F)cc1F [Fluconazole] | -0.415 |
| Nc1[nH]cnc2ncnc1-2 [Adenine HCl] | 1.06 |
| C[C@@H](NCCCc1cccc(C(F)(F)F)c1)c1cccc2ccccc12 [Cinacalcet HCl] | < -6.7 |
| CC(=O)Nc1cccc(-n2c(=O)n(C3CC3)c(=O)c3c(Nc4ccc(I)cc4F)n(C)c(=O)c(C)c32)c1 | -2.36 |
| CC[N+](C)(C)c1cccc(O)c1 [Edrophonium chloride] | -0.805 |
| OCCN1CCN(CC/C=C2/c3ccccc3Sc3ccc(C(F)(F)F)cc32)CC1 [cis-(Z)-Flupenthixol dihydrochloride] | < -4.47 |
| COc1cc2ncnc(Sc3nnc(C)s3)c2cc1OC | -6.01 |
| Cc1cn[nH]c1 [4-Methylpyrazole hydrochloride] | 0.657 |
| Cc1ccc(S(=O)(=O)c2ccc([N+](=O)[O-])o2)cc1 | -6.27 |
| COC(=O)Nc1nc2cc(C(=O)c3cccs3)ccc2[nH]1 [Nocodazole] | -4.95 ± 1.4 |
| COc1cc(Br)c(Nc2nc(-c3c(C)nc4ncccn34)cs2)c(Br)c1 | -4.58 |
| O=C(O)CCCCCCCC(=O)O [Azelaic acid] | -0.276 |
| CC(=Cc1ccc(C(=O)O)cc1)c1ccc2c(c1)C(C)(C)CCC2(C)C | 0.539 |
| COc1ccc(-c2cc(=O)c3c(O)c(OC)c(OC)cc3o2)cc1O [Eupatorin] | -3.85 |
| CC(C)(C)c1cnc(CSc2cnc(NC(=O)C3CCNCC3)s2)o1 | < -6.7 |
| CC(C)c1c(C(=O)Nc2ccccc2)c(-c2ccccc2)c(-c2ccc(F)cc2)n1CC[C@@H](O)C[C@@H](O)CC(=O)O [Atorvastatin Calcium] | -4.61 |
| CC(C)c1c(C(=O)Nc2ccccc2)c(-c2ccccc2)c(-c2ccc(F)cc2)n1CC[C@@H](O)C[C@@H](O)CC(=O)O [Atorvastatin calcium salt trihydrate] | -2.67 |
| CN(C)CCC(c1ccc(Cl)cc1)c1ccccn1 (racemic) [(±)-Chlorpheniramine maleate] | -1.14 |
| CN(C)CCC(c1ccc(Cl)cc1)c1ccccn1 (racemic) [Chlorpheniramine Maleate] | -1.1 |

| SMILES | MBP+ mature oligodendrocyte number |
| --- | --- |
| CCN[C@H]1CN(CCCOC)S(=O)(=O)c2sc(S(N)(=O)=O)cc21 [Brinzolamide] | 1.15 ± 1.8 |
| NC(=O)c1ccc(N(C(N)=O)c2c(F)cccc2F)nc1-c1ccc(F)cc1F | 2.26 |
| C[N+]1(C)CCC(OC(=O)C(c2ccccc2)c2ccccc2)CC1 | 0.467 |
| C[N+]1(C)CCC(OC(=O)C(c2ccccc2)c2ccccc2)CC1 [4-DAMP methiodide] | 2.86 |
| Oc1cc(O)c2c(c1)O[C@H](c1ccc(O)c(O)c1)[C@@H](O)C2 [(+)-Catechin Hydrate] | 0.0777 |
| CC(=O)Oc1ccccc1C(=O)Nc1ncc([N+](=O)[O-])s1 [Nitazoxanide] | 1.51 |
| O=c1cc(-c2ccccc2)oc2c(O)c(O)ccc12 [7,8-Dihydroxyflavone hydrate] | 1.97 |
| CCN(CC)CCOC(=O)C1(C2CCCCC2)CCCCC1 [Dicyclomine hydrochloride] | 9.71 |
| CCCc1cc(C)[nH]c(=O)c1CNC(=O)c1cc(-c2ccc(N3CCN(C(C)C)CC3)nc2)cc2c1cnn2C(C)C | < -6.35 |
| CC(N/C(=N\C#N)Nc1ccncc1)C(C)(C)C (stereo not drawn) [Pinacidil] | 0.681 |
| COc1ccc([C@@H]2CC(=O)c3c(O)cc(O)cc3O2)cc1O [Hesperetin] | 2.02 |
| Nc1c(CC(=O)O)cccc1C(=O)c1ccccc1 [Amfenac Sodium Monohydrate] | 5.73 |
| CN(C)CCCN1c2ccccc2Sc2ccc(C(F)(F)F)cc21 [Triflupromazine hydrochloride] | < -3.85 |
| O=C1NC(=O)c2c1c(-c1ccccc1)cc1[nH]c3ccc(O)cc3c21 | < -3.97 |
| COc1cc(C(=O)OCCCN2CCCN(CCCOC(=O)c3cc(OC)c(OC)c(OC)c3)CC2)cc(OC)c1OC [Dilazep hydrochloride] | -3.47 |
| COc1ccc(-c2ccc3c(N4CCOC[C@@H]4C)nc(N4CCOC[C@@H]4C)nc3n2)cc1CO | < -5.15 |
| N=C(NC(=O)c1nc(Cl)c(N)nc1N)Nc1ccccc1 [Phenamil methanesulfonate] | 0.681 |
| C#CC(N)CCC(=O)O (stereo not drawn) [gamma-Acetylinic GABA] | -0.158 |
| COc1c(C)c(C(=O)c2ccc(N)c(C(=O)O)c2)n2ccccc12 | 1.5 |
| NCCC[C@](N)(C(=O)O)C(F)F (racemic) [DL-alpha-Difluoromethylornithine hydrochloride] | -0.962 |
| c1ccc(NCc2ccc(CNc3ccccn3)cc2)nc1 | -1.17 |
| Cc1nnc(C(=O)NC(C)(C)c2nc(C(=O)NCc3ccc(F)cc3)c(O)c(=O)n2C)o1 [Raltegravir (MK-0518)] | 55.9 |
| C[C@@H]1C[C@H]2[C@@H]3C[C@H](F)C4=CC(=O)C=C[C@]4(C)[C@@]3(F)[C@@H](O)C[C@]2(C)[C@@]1(O)C(=O)CO [Flumethasone] | 8.94 |
| O=C(NC[C@H]1CN(c2ccc(N3CCOCC3=O)cc2)C(=O)O1)c1ccc(Cl)s1 [Rivaroxaban] | 3.6 |
| Cc1cc2c(cc1CC(=O)c1sccc1S(=O)(=O)Nc1onc(C)c1Cl)OCO2 [Sitaxentan sodium] | 1.61 |
| O=C(O)c1cn(-c2ccc(F)cc2)c2cc(N3CCNCC3)c(F)cc2c1=O [Sarafloxacin HCl] | 1.78 |
